Measured values: publication PMC5700166
The list shows a part of the results, in another mix than the full data. The list includes weakly bound sequences.

What was measured:
Assay in all cases: protein-binding microarray (PBM)
Conditions in all cases: PBM: ~300 nM protein, 6 mM HEPES pH 7.8, 80 mM KCl, 0.5 mM EDTA, 0.5 mM EGTA, 6% glycerol, 35 ng/ul poly-dIdC, 1% milk, 1 h, room temperature; Ap Aiptasia and Nv Nematostella (sea anemones) / Co Capsaspora / Aq Amphimedon (sponge) / Dm Drosophila / Hu human; RHD is the Rel homology domain; high values mean tight binding; most listed sequences are background and not binding sites; double strand, one strand shown
[1] = target: T1, GST-Ap-NF-kB RHD (UniProt A0A913YAJ5)
T1 sequence: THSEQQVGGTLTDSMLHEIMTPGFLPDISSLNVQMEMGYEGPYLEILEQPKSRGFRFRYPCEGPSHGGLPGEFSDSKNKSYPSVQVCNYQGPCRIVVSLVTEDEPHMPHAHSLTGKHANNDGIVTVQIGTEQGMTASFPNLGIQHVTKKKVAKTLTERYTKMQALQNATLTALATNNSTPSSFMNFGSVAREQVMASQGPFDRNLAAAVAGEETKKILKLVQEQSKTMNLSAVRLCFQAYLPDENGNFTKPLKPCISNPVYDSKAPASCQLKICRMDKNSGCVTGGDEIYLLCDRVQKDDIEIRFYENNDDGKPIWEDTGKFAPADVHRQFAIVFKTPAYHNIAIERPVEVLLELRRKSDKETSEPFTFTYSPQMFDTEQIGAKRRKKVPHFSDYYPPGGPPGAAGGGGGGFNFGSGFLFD

[2] = target: T2, GST-Nv-NF-kB (Cys allele) (UniProt E5G601)
T2 sequence: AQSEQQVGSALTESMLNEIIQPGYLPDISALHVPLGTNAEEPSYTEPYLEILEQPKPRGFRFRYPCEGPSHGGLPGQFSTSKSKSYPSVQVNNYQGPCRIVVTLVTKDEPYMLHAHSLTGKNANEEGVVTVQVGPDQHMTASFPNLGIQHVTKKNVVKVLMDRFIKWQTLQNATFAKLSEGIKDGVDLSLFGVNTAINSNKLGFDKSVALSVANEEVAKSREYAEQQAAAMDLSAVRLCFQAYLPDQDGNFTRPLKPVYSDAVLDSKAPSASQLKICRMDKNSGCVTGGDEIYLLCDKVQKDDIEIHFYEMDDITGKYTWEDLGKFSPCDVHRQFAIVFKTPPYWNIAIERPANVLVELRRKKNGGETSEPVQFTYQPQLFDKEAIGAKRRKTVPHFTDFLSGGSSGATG

[3] = target: T3, GST-Co-NF-kB (UniProt F1ARL5)
T3 sequence: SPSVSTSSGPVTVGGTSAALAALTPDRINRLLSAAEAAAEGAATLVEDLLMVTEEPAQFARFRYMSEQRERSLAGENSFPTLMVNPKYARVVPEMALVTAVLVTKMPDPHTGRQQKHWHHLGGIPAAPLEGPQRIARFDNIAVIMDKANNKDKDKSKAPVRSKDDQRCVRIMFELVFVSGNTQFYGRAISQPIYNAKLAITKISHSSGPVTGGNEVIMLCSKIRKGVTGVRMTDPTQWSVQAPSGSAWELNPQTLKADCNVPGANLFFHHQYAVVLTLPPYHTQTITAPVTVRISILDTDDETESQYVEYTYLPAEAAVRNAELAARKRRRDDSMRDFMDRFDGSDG

[4] = target: T4, GST-Dm-Relish (UniProt Q94527)
T4 sequence: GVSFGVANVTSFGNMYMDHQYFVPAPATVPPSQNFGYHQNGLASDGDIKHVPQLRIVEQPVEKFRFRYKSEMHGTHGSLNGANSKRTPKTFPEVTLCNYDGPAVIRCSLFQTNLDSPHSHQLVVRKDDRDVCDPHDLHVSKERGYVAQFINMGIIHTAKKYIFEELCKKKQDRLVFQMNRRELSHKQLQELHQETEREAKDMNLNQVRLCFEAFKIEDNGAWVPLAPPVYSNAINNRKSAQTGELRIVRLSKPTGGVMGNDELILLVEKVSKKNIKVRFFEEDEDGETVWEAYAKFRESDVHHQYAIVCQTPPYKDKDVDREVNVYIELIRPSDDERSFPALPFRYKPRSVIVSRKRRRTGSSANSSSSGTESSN

[5] = target: T5, GST-Aq-NF-kB (UniProt A9Y5G7)
T5 sequence: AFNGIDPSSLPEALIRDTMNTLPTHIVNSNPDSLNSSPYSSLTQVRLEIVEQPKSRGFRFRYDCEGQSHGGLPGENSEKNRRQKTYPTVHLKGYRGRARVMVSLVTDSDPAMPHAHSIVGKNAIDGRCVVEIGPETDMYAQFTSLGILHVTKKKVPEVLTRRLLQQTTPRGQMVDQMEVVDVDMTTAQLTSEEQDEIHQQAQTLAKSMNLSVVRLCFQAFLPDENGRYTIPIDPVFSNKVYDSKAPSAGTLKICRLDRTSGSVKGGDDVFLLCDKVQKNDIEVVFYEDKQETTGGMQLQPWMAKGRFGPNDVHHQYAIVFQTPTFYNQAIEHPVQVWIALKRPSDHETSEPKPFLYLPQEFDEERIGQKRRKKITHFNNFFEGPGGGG

| Sequence | binding signal [1] | binding signal [2] | binding signal [3] | binding signal [4] | binding signal [5] |
| --- | --- | --- | --- | --- | --- |
| CCGATTAACATCATCGGATCTGTTGATGTTAATCGGGTCTTGATTCGCTTGACGCTGCTG | -0.111 z-score | -0.838 z-score | -1.37 z-score | -1.04 z-score | -0.465 z-score |
| CCGATTAACATCAGGCCAGCCACTGATGTTAATCGGGTCTTGATTCGCTTGACGCTGCTG | -0.288 z-score | 0.524 z-score | -0.343 z-score | 0.345 z-score | -0.444 z-score |
| CCGATTAACATCATCGATGGCCTTGATGTTAATCGGGTCTTGATTCGCTTGACGCTGCTG | -0.489 z-score | -0.128 z-score | -1.01 z-score | -0.809 z-score | -0.55 z-score |
| CCGATTAACATCAGGACCTGAAGTGATGTTAATCGGGTCTTGATTCGCTTGACGCTGCTG | -0.328 z-score | 0.0165 z-score | -0.301 z-score | 0.0504 z-score | -0.606 z-score |
| CCGATTAACATCACCCAACTATTTGATGTTAATCGGGTCTTGATTCGCTTGACGCTGCTG | 0.233 z-score | -0.392 z-score | 0.464 z-score | 0.434 z-score | 0.351 z-score |
| CCGATTAACATCACAACGGAATGTGATGTTAATCGGGTCTTGATTCGCTTGACGCTGCTG | -0.459 z-score | 0.635 z-score | 0.00554 z-score | 1.37 z-score | -0.201 z-score |
| CCGATTAACATCAAACATGGGCTTGATGTTAATCGGGTCTTGATTCGCTTGACGCTGCTG | -0.677 z-score | 0.106 z-score | -0.274 z-score | -0.198 z-score | -0.392 z-score |
| CCGATTAACATCAAGTTTATCGATGATGTTAATCGGGTCTTGATTCGCTTGACGCTGCTG | -0.708 z-score | -0.488 z-score | -0.561 z-score | -0.284 z-score | -0.652 z-score |
| CCGATTAACATCAAAGAAGTTGGTGATGTTAATCGGGTCTTGATTCGCTTGACGCTGCTG | -0.171 z-score | -0.0337 z-score | 0.616 z-score | 0.159 z-score | -0.0463 z-score |
| CCGATTAACATCATCGCTTCCACTGATGTTAATCGGGTCTTGATTCGCTTGACGCTGCTG | -0.571 z-score | -0.0402 z-score | -0.0602 z-score | -0.176 z-score | -0.478 z-score |
